# Reference: a collection of fitness landscapes (doi:10.1016/j.celrep.2020.107928)
# In all, about 81,000 sequences were measured (“one-hybrid fitness for binding NBS DNA”: median about -0.1, highest 2% from about 0.36 on). This is one part of the list.
# B1: Caulobacter ParB omega fusion; a variant is named by its letters at X, in order, B8GW30 (parent)
# chain: MESVVVGEPGMSEGRRGLGRGLSALLGEVDAAPAQAPGEQLGGSREAPIEILQRNPDQPRRTFREEDLEDLSNSIREKGVLQPILVRPSPDTAGEYQIVAGERAWRAAQRAGLKTVPIMVRELDDLAVLEIGIIENVQRADLNVLEEALSYKVLMEKFERTQENIAQTIGKSXSHVANXMRLLXLPDEVQSYLVSGELTAXHARAIAAAADPVALAKQIIEGGLSVRETEALARKAPNLSAGKSKGGRPPRVKDTDTQALESDLSSVLGLDVSIDHRGSTGTLTITYATLEQLDDLCNRLTRGI
# Variants of: B1
# Assay: one-hybrid fitness for binding NBS DNA (the Noc-binding site; scaled: cognate 1, non-cognate 0); higher = stronger binding
# Conditions: with NBS DNA site
# Outline: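 Selection: bacterial one-hybrid in E. coli USO, HIS3 reporter with the site 19 bp from the promoter, 48 hours at 37°C on M9-minus-histidine plus 0.1 mM IPTG and 5 mM 3-AT. Libraries were Caulobacter ParB with four randomised specificity codons, sequenced on Illumina before and after selection. Fitness is the rescaled log change in variant-to-wild-type read ratio, anchored to the cognate and non-cognate sites.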
row,Variant,one-hybrid fitness for binding NBS DNA
1,SGQW,≤ 0.2
2,TREM,≤ 0.2
3,PLYY,≤ 0.2
4,IQNG,≤ 0.2
5,REYD,≤ 0.2
6,WFRY,≤ 0.2
7,LHNG,≤ 0.2
8,QWTV,≤ 0.2
9,IKRY,≤ 0.2
10,HTFS,≤ 0.2
11,VGHS,≤ 0.2
12,RLDW,≤ 0.2
13,IAER,≤ 0.2
14,ITHG,≤ 0.2
15,WLYS,≤ 0.2
16,YKHG,≤ 0.2
17,YGSR,≤ 0.2
18,KEYR,≤ 0.2
19,IIRP,≤ 0.2
20,HLMV,≤ 0.2
21,IYKA,≤ 0.2
22,SPRY,≤ 0.2
23,HKQR,≤ 0.2
24,DSNL,≤ 0.2

row,Variant,one-hybrid fitness for binding NBS DNA
1,RLYW,≤ 0.2
2,YIKS,≤ 0.2
3,TREV,≤ 0.2
4,CPAV,≤ 0.2
5,DVAG,≤ 0.2
6,TLPF,≤ 0.2
7,GKYT,≤ 0.2
8,PRNY,≤ 0.2
9,NVPV,≤ 0.2
10,LCYR,≤ 0.2
11,TIKL,≤ 0.2
12,TTIN,≤ 0.2
13,VKVQ,≤ 0.2
14,IQAD,≤ 0.2
15,FPRN,≤ 0.2
16,HAAT,≤ 0.2
17,FGQT,≤ 0.2
18,LKLD,≤ 0.2
19,FSML,≤ 0.2
20,IPTT,≤ 0.2
21,PHHM,≤ 0.2
22,WQRT,≤ 0.2
23,RLHS,0.462
24,PQTR,≤ 0.2

row,Variant,one-hybrid fitness for binding NBS DNA
1,MGHQ,≤ 0.2
2,LFKI,≤ 0.2
3,WCKK,≤ 0.2
4,YIPR,≤ 0.2
5,YGMS,≤ 0.2
6,VSSY,≤ 0.2
7,LTPS,≤ 0.2
8,MTVE,≤ 0.2
9,FHGL,≤ 0.2
10,RNQK,≤ 0.2
11,QFGR,0.262
12,VCLY,≤ 0.2
13,SGPE,≤ 0.2
14,TYRS,≤ 0.2
15,IAAY,≤ 0.2
16,SCYS,≤ 0.2
17,PWWS,≤ 0.2
18,YRGM,≤ 0.2
19,QTLF,≤ 0.2
20,QRQT,0.755
21,IDCR,≤ 0.2
22,APQK,≤ 0.2
23,DIWR,≤ 0.2
24,ILTR,≤ 0.2

row,Variant,one-hybrid fitness for binding NBS DNA
1,EKCR,≤ 0.2
2,KWNC,≤ 0.2
3,KRSA,0.255
4,GKKV,≤ 0.2
5,ELVN,≤ 0.2
6,DLFC,≤ 0.2
7,DNRS,≤ 0.2
8,YQLR,≤ 0.2
9,VVCY,≤ 0.2
10,QVGF,≤ 0.2
11,QIAD,≤ 0.2
12,EIYW,≤ 0.2
13,DTGL,≤ 0.2
14,WVHT,≤ 0.2
15,PMGC,≤ 0.2
16,LEEM,≤ 0.2
17,WCTL,≤ 0.2
18,SLIR,≤ 0.2
19,QELG,≤ 0.2
20,PDPT,≤ 0.2
21,GQVG,≤ 0.2
22,GYPC,≤ 0.2
23,KHDT,≤ 0.2
24,LLQL,≤ 0.2

row,Variant,one-hybrid fitness for binding NBS DNA
1,RTNT,0.636
2,LANR,≤ 0.2
3,PITK,≤ 0.2
4,QCDV,≤ 0.2
5,AGNL,≤ 0.2
6,NRLT,≤ 0.2
7,QVRF,≤ 0.2
8,WYYS,≤ 0.2
9,EHRR,≤ 0.2
10,ECKT,≤ 0.2
11,PGYQ,≤ 0.2
12,SPHM,≤ 0.2
13,PNIS,≤ 0.2
14,KCTC,≤ 0.2
15,LLGR,≤ 0.2
16,TPQD,≤ 0.2
17,KRDL,≤ 0.2
18,GYGM,≤ 0.2
19,GSNT,≤ 0.2
20,CSWC,≤ 0.2
21,PPQV,≤ 0.2
22,EMMN,≤ 0.2
23,PVAP,≤ 0.2
24,PMFR,≤ 0.2

row,Variant,one-hybrid fitness for binding NBS DNA
1,SWGV,≤ 0.2
2,RAYA,≤ 0.2
3,SQKG,≤ 0.2
4,ISVV,≤ 0.2
5,ESRL,≤ 0.2
6,AIHK,≤ 0.2
7,WILG,≤ 0.2
8,KIYF,≤ 0.2
9,KSMS,≤ 0.2
10,RMPY,≤ 0.2
11,EQCR,≤ 0.2
12,PSFL,≤ 0.2
13,IWRT,≤ 0.2
14,VMLV,≤ 0.2
15,LTML,≤ 0.2
16,PVGW,≤ 0.2
17,REHT,≤ 0.2
18,TANR,≤ 0.2
19,TTWY,≤ 0.2
20,ATEC,≤ 0.2
21,DGPC,≤ 0.2
22,YMKC,≤ 0.2
23,SRTF,≤ 0.2
24,IQRS,≤ 0.2

row,Variant,one-hybrid fitness for binding NBS DNA
1,PRDE,≤ 0.2
2,TKPV,≤ 0.2
3,PIQS,≤ 0.2
4,QRDG,≤ 0.2
5,DRGY,≤ 0.2
6,GPDF,≤ 0.2
7,HNME,≤ 0.2
8,LSHL,≤ 0.2
9,LALV,≤ 0.2
10,NNAW,≤ 0.2
11,NSKE,≤ 0.2
12,RMYH,≤ 0.2
13,MGDG,≤ 0.2
14,GLTH,≤ 0.2
15,NEMI,≤ 0.2
16,THDN,≤ 0.2
17,EHVA,≤ 0.2
18,LHGA,≤ 0.2
19,KRNS,0.453
20,NIEL,≤ 0.2
21,THHW,≤ 0.2
22,CCMG,≤ 0.2
23,GKMS,≤ 0.2
24,TRQS,≤ 0.2

row,Variant,one-hybrid fitness for binding NBS DNA
1,YHTT,≤ 0.2
2,KIRF,≤ 0.2
3,QWIG,≤ 0.2
4,LKHT,≤ 0.2
5,AMWG,≤ 0.2
6,PSKS,≤ 0.2
7,FVTC,≤ 0.2
8,WGYV,≤ 0.2
9,RLTF,≤ 0.2
10,SQMF,≤ 0.2
11,SAEC,≤ 0.2
12,FHRC,≤ 0.2
13,MLAT,≤ 0.2
14,SPYK,≤ 0.2
15,KMKA,≤ 0.2
16,RYHK,≤ 0.2
17,ATYF,≤ 0.2
18,ANVG,≤ 0.2
19,QGDG,≤ 0.2
20,SFTI,≤ 0.2
21,VHTV,≤ 0.2
22,SAFF,≤ 0.2
23,TVVE,≤ 0.2
24,TYMA,≤ 0.2

row,Variant,one-hybrid fitness for binding NBS DNA
1,VDTT,≤ 0.2
2,ECTE,≤ 0.2
3,RSFD,≤ 0.2
4,PTNA,≤ 0.2
5,RLMT,0.335
6,STFT,≤ 0.2
7,RSEN,≤ 0.2
8,YDQS,≤ 0.2
9,MPKR,≤ 0.2
10,RHIG,≤ 0.2
11,ERMG,≤ 0.2
12,PYTR,≤ 0.2
13,CPND,≤ 0.2
14,AGHV,≤ 0.2
15,TAAI,≤ 0.2
16,TRYG,≤ 0.2
17,LHLL,≤ 0.2
18,GFDF,≤ 0.2
19,QQLR,0.567
20,PYCS,≤ 0.2
21,YTLE,≤ 0.2
22,QAIC,≤ 0.2
23,YWVG,≤ 0.2
24,RPYR,≤ 0.2

row,Variant,one-hybrid fitness for binding NBS DNA
1,HPIL,≤ 0.2
2,TLEA,≤ 0.2
3,RCAA,0.234
4,STRC,≤ 0.2
5,VVFV,≤ 0.2
6,SISF,≤ 0.2
7,PVIC,≤ 0.2
8,DLQR,≤ 0.2
9,THMR,≤ 0.2
10,NDMC,≤ 0.2
11,PKKW,≤ 0.2
12,DPFS,≤ 0.2
13,VVRG,≤ 0.2
14,PKRL,≤ 0.2
15,WVAS,≤ 0.2
16,SSKT,≤ 0.2
17,KYMR,≤ 0.2
18,NAHA,≤ 0.2
19,IKYG,≤ 0.2
20,TSLY,≤ 0.2
21,LCRR,0.241
22,NFEL,≤ 0.2
23,QIKW,≤ 0.2
24,RFNM,≤ 0.2

row,Variant,one-hybrid fitness for binding NBS DNA
1,RTNQ,0.201
2,VHET,≤ 0.2
3,AVSY,≤ 0.2
4,RPNE,≤ 0.2
5,NNCW,≤ 0.2
6,QSMS,0.302
7,GWCS,≤ 0.2
8,NQAE,≤ 0.2
9,GYCD,≤ 0.2
10,RLWF,≤ 0.2
11,QHSG,≤ 0.2
12,SANL,≤ 0.2
13,YNCR,≤ 0.2
14,AANT,≤ 0.2
15,GHCH,≤ 0.2
16,KILI,≤ 0.2
17,DSSF,≤ 0.2
18,ALFF,≤ 0.2
19,WEAS,≤ 0.2
20,QLFV,≤ 0.2
21,KCRT,0.315
22,ACAI,≤ 0.2
23,LFMR,≤ 0.2
24,RDKP,≤ 0.2

row,Variant,one-hybrid fitness for binding NBS DNA
1,SEQD,≤ 0.2
2,AFTG,≤ 0.2
3,IPPA,≤ 0.2
4,TTNR,≤ 0.2
5,RCND,≤ 0.2
6,KRYP,≤ 0.2
7,YPSS,≤ 0.2
8,MHHG,≤ 0.2
9,QSGM,≤ 0.2
10,SDQI,≤ 0.2
11,ATQT,≤ 0.2
12,WLKS,≤ 0.2
13,YYTF,≤ 0.2
14,QNTH,≤ 0.2
15,HARH,≤ 0.2
16,EPSA,≤ 0.2
17,DYNV,≤ 0.2
18,WFCT,≤ 0.2
19,SRGF,≤ 0.2
20,GQYS,≤ 0.2
21,QGHI,≤ 0.2
22,TASV,≤ 0.2
23,PLNE,≤ 0.2
24,LDLF,≤ 0.2

row,Variant,one-hybrid fitness for binding NBS DNA
1,ARRE,≤ 0.2
2,RVSS,0.39
3,YTRT,≤ 0.2
4,REMT,≤ 0.2
5,CRLC,≤ 0.2
6,HVMR,≤ 0.2
7,HPKN,≤ 0.2
8,AQAG,≤ 0.2
9,TEDG,≤ 0.2
10,TIYI,≤ 0.2
11,VFTS,≤ 0.2
12,KIDS,≤ 0.2
13,IRPL,≤ 0.2
14,QPYH,≤ 0.2
15,DPGT,≤ 0.2
16,VVLD,≤ 0.2
17,QRKP,0.404
18,NSAG,≤ 0.2
